These are yes or no findings as the source states them, for the method shown. Binding seen in cells or lysates may run through a third protein. Some binding calls cover weakened binding; strength is not graded here. Tags and fused reporters may be left off the sequences shown.

Amino acid sequences for entries named in this document (tags omitted).
UniProt P03496: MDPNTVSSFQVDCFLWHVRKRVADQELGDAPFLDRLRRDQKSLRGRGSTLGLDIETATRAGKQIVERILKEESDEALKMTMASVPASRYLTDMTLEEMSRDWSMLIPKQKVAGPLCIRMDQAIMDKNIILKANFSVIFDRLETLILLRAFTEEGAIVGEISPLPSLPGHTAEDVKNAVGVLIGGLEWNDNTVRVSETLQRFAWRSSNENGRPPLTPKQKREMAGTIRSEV

This passage reports binding results from article PMC3566120.

Assay [1] concerns the target T1, Myc-tagged wild-type hGBP1 (human guanylate-binding protein 1) (human) (UniProt P32455).
T1 sequence: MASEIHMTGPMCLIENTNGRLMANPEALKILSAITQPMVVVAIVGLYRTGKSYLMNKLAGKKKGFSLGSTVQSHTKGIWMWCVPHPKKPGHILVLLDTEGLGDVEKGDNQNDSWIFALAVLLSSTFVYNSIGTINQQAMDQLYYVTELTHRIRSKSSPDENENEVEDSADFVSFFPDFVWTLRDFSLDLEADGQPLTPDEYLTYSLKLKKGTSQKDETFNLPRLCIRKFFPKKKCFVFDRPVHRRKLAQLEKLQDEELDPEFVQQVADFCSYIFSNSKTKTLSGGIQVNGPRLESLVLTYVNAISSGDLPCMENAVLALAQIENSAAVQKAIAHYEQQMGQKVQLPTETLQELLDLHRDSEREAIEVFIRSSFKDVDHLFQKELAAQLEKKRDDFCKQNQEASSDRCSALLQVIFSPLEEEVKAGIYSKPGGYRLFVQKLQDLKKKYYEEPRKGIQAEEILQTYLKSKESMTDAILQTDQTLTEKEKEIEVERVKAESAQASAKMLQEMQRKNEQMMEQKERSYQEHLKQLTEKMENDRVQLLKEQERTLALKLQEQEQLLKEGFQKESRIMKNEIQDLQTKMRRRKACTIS
The assay can be described thus: co-IP.

Assay [2] concerns the target T2, hGBP1 fused to the N-terminal fragment of venus fluorescent protein (human) (UniProt P32455).
T2 sequence: T1 sequence
As to the kind of experiment: split reporter.

For assay [3], the target named is Flag-tagged viral matrix protein 1 (UniProt P03485). The assay can be described thus: co-IP.
Assay [4] has as its target Flag-tagged wild-type NS1 (nonstructural protein 1) of influenza A virus PR8 (influenza A virus A/Puerto-Rico/8/34 (H1N1; PR8)) (UniProt P03496). As to the kind of experiment: co-IP.

“Flag-tagged viral matrix protein 1 (from UniProt P03485 1-252)”: in assay [1], the binding result is on record as “no binding”. Same read-out and setting: next, “Flag-tagged wild-type NS1 (nonstructural protein 1) of influenza A virus PR8 (from UniProt P03496 1-230)”: “binds”. In the case of “NS1 fused to the C-terminal fragment of venus fluorescent protein (from UniProt P03496 1-230)”, the binding entry in assay [2] is “binds”.

B1: Myc-tagged wild-type hGBP1 (human guanylate-binding protein 1) (protein, UniProt P32455 1-592)
chain: T1 sequence
In the case of B1, the binding entry in assay [3] is given as “no binding”; in assay [4], “binds”.
